In patent publication US20230117205A1, “B7-H4 ANTIBODY-DRUG CONJUGATES FOR THE TREATMENT OF CANCER” (SEAGEN INC., priority 2021, published 2023):

Test system: MDA-MB-468 xenograft tumors
Assay: MDA-MB-468 xenograft, single dose, tumor volume
Type: in vivo, NSG mice
Conditions: single 3 mg/kg dose, i.p.
Description: Tumors were harvested 7 days after treatment, cut in half, and processed for RNA-seq or IHC. […]
Specifically, female NSG mice were implanted with 1×10^6 MDA-MB-468 cells in 25% Matrigel H C subcutaneously. Once tumor volumes reached ˜250-300 mm^3, mice were randomized into treatment groups of 6 mice each and treated with a single 3 mg/kg dose of ADC or mAb, or vehicle control (20 mM Histidine buffer, pH 6.0) injected intraperitoneally (i.p.). Stock concentrations of ADC were diluted to desired concentration with 20 mM Histidine buffer, pH 6.0 or and stock concentration of mAb were diluted to desired concentration with 0.01% Tween20 in PBS. Twenty-four hours prior to dosing, each animal was treated with 10 mg/kg hIVIG. One week following treatment, tumors were harvested, cut in half, and processed for RNAseq (frozen at −80° C.) or formalin-fixed and paraffin-embedded for immunohistochemical (IHC) analysis.

B1: B7H41001 mAb (antibody)
heavy: QLQLQESGPGLVKPSETLSLTCTVSGGSIKSGSYYWGWIRQPPGKGLEWIGNIYYSGSTYYNPSLRSRVTISVDTSKNQFSLKLSSVTAADTAVYYCAREGSYPNQFDPWGQGTLVTVSS[human IgG1 constant region not listed]
light: EIVMTQSPATLSVSPGERATLSCRASQSVSSNLAWYQQKPGQAPRLLIYGASTRATGIPARFSGSGSGTEFTLTISSLQSEDFAVYYCQQYHSFPFTFGGGTKVEIKRTVAAPSVFIFPPSDEQLKSGTASVVCLLNNFYPREAKVQWKVDNALQSGNSQESVTEQDSKDSTYSLSSTLTLSKADYEKHKVYACEVTHQGLSSPVTKSFNRGEC
modifications: non-natural residues; cyclised or stapled
- tumor volume: not
